# According to the supplement of paper PMC4604168 (melanoma cell lines):
# The other results are listed elsewhere or left out. Most values come without repeats; read them as rough.
# Columns and labels:
# Assay in all cases: cell count relative to DMSO control; melanoma cells; higher = more viable cells
# Conditions in all cases: library dose: standard library concentration; 72 h
# 501Mel = tested on: 501Mel
# A101D = tested on: A101D
# A2058 = tested on: A2058
# A375 = tested on: A375
# 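Note: cells treated in 1,536-well plates, then fixed and DAPI-stained, with nuclei counted from automated high-throughput microscope images.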
SMILES,cell count (501Mel) [%],cell count (A101D) [%],cell count (A2058) [%],cell count (A375) [%]
"N#CC[C@H](C1CCCC1)n1cc(-c2ncnc3[nH]ccc23)cn1 [ruxolitinib] + CCCCCCCCCCCC1=C(O)C(=O)C=C(O)C1=O [Embelin] (first compound 5 µM, partner dose 6 µM)",103,107,80,128
"CC[C@]1(O)C[C@H]2CN(CCc3c([nH]c4ccccc34)[C@@](C(=O)OC)(c3cc4c(cc3OC)N(C=O)[C@H]3[C@@](O)(C(=O)OC)[C@H](OC(C)=O)[C@]5(CC)C=CCN6CC[C@]43[C@@H]65)C2)C1 [vincristine] + Oc1nc(-c2ccc(C(F)(F)F)cc2)nc2c1CSCC2 [XAV939] (first compound 0.0005 µM, partner dose 10 µM)",99,56.1,23.2,98.3
"CC[C@]1(O)C[C@H]2CN(CCc3c([nH]c4ccccc34)[C@@](C(=O)OC)(c3cc4c(cc3OC)N(C=O)[C@H]3[C@@](O)(C(=O)OC)[C@H](OC(C)=O)[C@]5(CC)C=CCN6CC[C@]43[C@@H]65)C2)C1 [vincristine] + Cc1cc([N+](=O)[O-])ccc1NS(=O)(=O)c1cc(Cl)ccc1Cl [FH535] (first compound 0.0005 µM, partner dose 5 µM)",45.1,49.3,8.12,69.1
"N#CC[C@H](C1CCCC1)n1cc(-c2ncnc3[nH]ccc23)cn1 [ruxolitinib] + N#Cc1c(O)c2c(-c3ccc(-c4ccccc4O)cc3)csc2[nH]c1=O [A769662] (first compound 5 µM, partner dose 10 µM)",102,115,71.9,115
"Cc1cc(Nc2cc(N3CCN(C)CC3)nc(Sc3ccc(NC(=O)C4CC4)cc3)n2)n[nH]1 [Tozasertib] + O=S(=O)(c1ccccc1)N(CC(F)(F)F)c1ccc(C(O)(C(F)(F)F)C(F)(F)F)cc1 [T0901317] (first compound 0.03 µM, partner dose 7 µM)",65.7,78,86.3,102
"Cc1cc(Nc2cc(N3CCN(C)CC3)nc(Sc3ccc(NC(=O)C4CC4)cc3)n2)n[nH]1 [Tozasertib] + CCCCCCCCCCCC1=C(O)C(=O)C=C(O)C1=O [Embelin] (first compound 0.03 µM, partner dose 6 µM)",78,67.4,80.7,103
"CC[C@]1(O)C[C@H]2CN(CCc3c([nH]c4ccccc34)[C@@](C(=O)OC)(c3cc4c(cc3OC)N(C=O)[C@H]3[C@@](O)(C(=O)OC)[C@H](OC(C)=O)[C@]5(CC)C=CCN6CC[C@]43[C@@H]65)C2)C1 [vincristine] + O=S(=O)(c1ccccc1)N(CC(F)(F)F)c1ccc(C(O)(C(F)(F)F)C(F)(F)F)cc1 [T0901317] (first compound 0.0005 µM, partner dose 7 µM)",83,50.2,13.4,94.6
"CC[C@]1(O)C[C@H]2CN(CCc3c([nH]c4ccccc34)[C@@](C(=O)OC)(c3cc4c(cc3OC)N(C=O)[C@H]3[C@@](O)(C(=O)OC)[C@H](OC(C)=O)[C@]5(CC)C=CCN6CC[C@]43[C@@H]65)C2)C1 [vincristine] + COc1cc2ncnc(Nc3ccc(Oc4ccccc4)cc3)c2cc1OC [SrcI1] (first compound 0.0005 µM, partner dose 10 µM)",65.5,53.3,51.6,99
"Cc1cc(Nc2cc(N3CCN(C)CC3)nc(Sc3ccc(NC(=O)C4CC4)cc3)n2)n[nH]1 [Tozasertib] + Oc1nc(-c2ccc(C(F)(F)F)cc2)nc2c1CSCC2 [XAV939] (first compound 0.03 µM, partner dose 10 µM)",92.4,71.4,76.5,70.5
"N#CC[C@H](C1CCCC1)n1cc(-c2ncnc3[nH]ccc23)cn1 [ruxolitinib] + CC(C)CCN1c2nc(Nc3cc(F)c(O)c(F)c3)ncc2N(C)C(=O)C1C [BID1870] (first compound 5 µM, partner dose 1 µM)",89.6,66,71.3,119
"CC[C@]1(O)C[C@H]2CN(CCc3c([nH]c4ccccc34)[C@@](C(=O)OC)(c3cc4c(cc3OC)N(C=O)[C@H]3[C@@](O)(C(=O)OC)[C@H](OC(C)=O)[C@]5(CC)C=CCN6CC[C@]43[C@@H]65)C2)C1 [vincristine] + CCc1ccc(CCOc2ccc(CC3SC(=O)NC3=O)cc2)nc1 [pioglitazone] (first compound 0.0005 µM, partner dose 10 µM)",27.9,33.9,8.22,87.4
"Cc1cc(Nc2cc(N3CCN(C)CC3)nc(Sc3ccc(NC(=O)C4CC4)cc3)n2)n[nH]1 [Tozasertib] + COc1cc2ncnc(Nc3ccc(Oc4ccccc4)cc3)c2cc1OC [SrcI1] (first compound 0.03 µM, partner dose 10 µM)",78.7,53.4,81,120
"N#CC[C@H](C1CCCC1)n1cc(-c2ncnc3[nH]ccc23)cn1 [ruxolitinib] + Oc1cc(-c2nc(-c3ccccc3)[nH]c2-c2ccncc2)ccc1Cl [L779450] (first compound 5 µM, partner dose 1 µM)",78.1,83.3,70.2,130
"N#CC[C@H](C1CCCC1)n1cc(-c2ncnc3[nH]ccc23)cn1 [ruxolitinib] + O=S(=O)(c1ccccc1)N(CC(F)(F)F)c1ccc(C(O)(C(F)(F)F)C(F)(F)F)cc1 [T0901317] (first compound 5 µM, partner dose 7 µM)",91.3,108,87.7,99.2
"CC[C@]1(O)C[C@H]2CN(CCc3c([nH]c4ccccc34)[C@@](C(=O)OC)(c3cc4c(cc3OC)N(C=O)[C@H]3[C@@](O)(C(=O)OC)[C@H](OC(C)=O)[C@]5(CC)C=CCN6CC[C@]43[C@@H]65)C2)C1 [vincristine] + COc1cc(N2CCC(N3CCN(C)CC3)CC2)ccc1Nc1ncc(Cl)c(Nc2ccccc2S(=O)(=O)C(C)C)n1 [NVP-TAE684] (first compound 0.0005 µM, partner dose 0.4 µM)",86.3,81.2,62.2,88.1
"Cc1cc(Nc2cc(N3CCN(C)CC3)nc(Sc3ccc(NC(=O)C4CC4)cc3)n2)n[nH]1 [Tozasertib] + CCN(CC)CCCCNc1ncc2cc(-c3cc(OC)cc(OC)c3)c(NC(=O)NC(C)(C)C)nc2n1 [PD173074] (first compound 0.03 µM, partner dose 0.5 µM)",78.7,85.8,92.1,138
"N#CC[C@H](C1CCCC1)n1cc(-c2ncnc3[nH]ccc23)cn1 [ruxolitinib] + O=C(O)C(=O)Nc1sc2c(c1C(=O)O)CCNC2 [TCS401] (first compound 5 µM, partner dose 8.33333 µM)",68.2,94,85.6,158
"N#CC[C@H](C1CCCC1)n1cc(-c2ncnc3[nH]ccc23)cn1 [ruxolitinib] + Cn1cc(/C=C2\C(=O)Nc3cccnc32)c2ccccc21 [GW441756] (first compound 5 µM, partner dose 2 µM)",98.2,122,94.4,196
"Cc1cc(Nc2cc(N3CCN(C)CC3)nc(Sc3ccc(NC(=O)C4CC4)cc3)n2)n[nH]1 [Tozasertib] + CCc1ccc(CCOc2ccc(CC3SC(=O)NC3=O)cc2)nc1 [pioglitazone] (first compound 0.03 µM, partner dose 10 µM)",98.3,94.6,80.3,113
"Cc1cc(Nc2cc(N3CCN(C)CC3)nc(Sc3ccc(NC(=O)C4CC4)cc3)n2)n[nH]1 [Tozasertib] + COc1cc(N2CCC(N3CCN(C)CC3)CC2)ccc1Nc1ncc(Cl)c(Nc2ccccc2S(=O)(=O)C(C)C)n1 [NVP-TAE684] (first compound 0.03 µM, partner dose 0.4 µM)",91.8,92.8,42.6,87.9
"CC[C@]1(O)C[C@H]2CN(CCc3c([nH]c4ccccc34)[C@@](C(=O)OC)(c3cc4c(cc3OC)N(C=O)[C@H]3[C@@](O)(C(=O)OC)[C@H](OC(C)=O)[C@]5(CC)C=CCN6CC[C@]43[C@@H]65)C2)C1 [vincristine] + O=C(O)C(=O)Nc1sc2c(c1C(=O)O)CCNC2 [TCS401] (first compound 0.0005 µM, partner dose 8.33333 µM)",38.5,36.4,4.63,130
"CC[C@]1(O)C[C@H]2CN(CCc3c([nH]c4ccccc34)[C@@](C(=O)OC)(c3cc4c(cc3OC)N(C=O)[C@H]3[C@@](O)(C(=O)OC)[C@H](OC(C)=O)[C@]5(CC)C=CCN6CC[C@]43[C@@H]65)C2)C1 [vincristine] + CCCS(=O)(=O)Nc1ccc(F)c(C(=O)c2c[nH]c3ncc(Cl)cc23)c1F [PLX4720] (first compound 0.0005 µM, partner dose 0.4 µM)",,86.2,120,91.7
